# In article PMC4336329 (PLoS ONE, 2015):
# Out of some 310,000 compounds screened, about 14,000 (4.5%) showed an effect of 50% or more. The effect is printed as a negative number. The list shows a part of the results.
# Target: human ether-à-go-go-related gene (hERG) potassium channel (human, UniProt Q12809)
# Test: primary screen, population patch clamp on CHO cells stably expressing hERG
# 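Also: peak tail current of the secondary pulse compared with the same well before compound.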
# Chain of human ether-à-go-go-related gene (hERG) potassium channel (Q12809 whole entry, looked up): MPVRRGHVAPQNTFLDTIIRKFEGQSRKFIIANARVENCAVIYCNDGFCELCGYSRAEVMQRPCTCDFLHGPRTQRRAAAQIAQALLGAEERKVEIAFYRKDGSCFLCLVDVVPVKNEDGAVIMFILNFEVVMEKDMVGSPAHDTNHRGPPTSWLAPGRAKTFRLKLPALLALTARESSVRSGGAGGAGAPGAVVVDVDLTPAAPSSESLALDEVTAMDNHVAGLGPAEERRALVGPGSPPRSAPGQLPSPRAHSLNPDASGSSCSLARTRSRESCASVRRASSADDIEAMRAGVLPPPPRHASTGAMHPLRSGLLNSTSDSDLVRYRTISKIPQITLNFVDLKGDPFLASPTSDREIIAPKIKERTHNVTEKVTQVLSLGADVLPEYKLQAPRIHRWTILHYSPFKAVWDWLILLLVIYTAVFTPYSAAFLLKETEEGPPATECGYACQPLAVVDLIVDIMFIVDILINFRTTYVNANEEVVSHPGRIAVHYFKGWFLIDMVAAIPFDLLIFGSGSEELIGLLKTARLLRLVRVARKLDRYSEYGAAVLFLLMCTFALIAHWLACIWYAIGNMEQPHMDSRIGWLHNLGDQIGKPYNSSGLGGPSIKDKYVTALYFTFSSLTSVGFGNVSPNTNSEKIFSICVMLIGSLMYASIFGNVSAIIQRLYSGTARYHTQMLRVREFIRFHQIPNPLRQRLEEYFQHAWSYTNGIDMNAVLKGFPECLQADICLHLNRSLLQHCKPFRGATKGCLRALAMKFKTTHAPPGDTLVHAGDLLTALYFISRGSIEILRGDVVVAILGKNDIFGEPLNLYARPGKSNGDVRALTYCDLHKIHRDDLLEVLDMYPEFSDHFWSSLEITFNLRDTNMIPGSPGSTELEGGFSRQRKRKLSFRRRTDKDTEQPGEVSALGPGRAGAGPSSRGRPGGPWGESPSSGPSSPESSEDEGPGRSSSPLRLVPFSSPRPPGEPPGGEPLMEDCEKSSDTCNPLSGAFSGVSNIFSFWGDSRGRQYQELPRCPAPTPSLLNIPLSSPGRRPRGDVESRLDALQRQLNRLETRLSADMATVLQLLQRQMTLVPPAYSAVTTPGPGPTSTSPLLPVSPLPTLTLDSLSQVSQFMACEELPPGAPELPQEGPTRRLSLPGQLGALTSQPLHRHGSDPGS
row,Structure (SMILES),"hERG current change (%, negative = inhibition) at 10uM [%]"
1,COc1cc([N+](=O)[O-])ccc1NC(=O)CCCOc1cccc(C)c1,-3.49
2,O=[N+]([O-])c1ccc(SCc2ccco2)cc1N1CCOCC1,-20.3
3,O=C(COC(=O)c1cc(NS(=O)(=O)c2cccs2)ccc1O)Nc1ccc(F)c(F)c1F,4.87
4,CCOC(=O)C1CCN(C(=O)c2ccccc2N(C)S(C)(=O)=O)CC1,-8.52
5,O=C(COC(=O)C1CCC(=O)N1)Nc1ccc(Oc2ccccc2)cc1 (centres unmarked),-0.66
6,O=C(Cn1cncn1)N/N=C/c1ccccc1Cl,16.8
7,CCOC(=O)c1ccccc1NC(=O)c1c(O)[nH]c(=O)[nH]c1=O,6.6
8,CC(C)C[C@H]1CN=C(Nc2ccccc2)N1CC1CCCC1,-24
9,COc1ccccc1N1CCN(C(=O)c2cc(N3C(=O)C4C5CCC(C5)C4C3=O)ccc2Cl)CC1 (centres unmarked),-4.13
10,COc1ccc(N=Cc2c(O)c3ccccc3oc2=O)cc1,16.6
11,CN1C(=O)c2ccccc2Sc2ccc(NC(=O)NC3CC3)cc21,-11
12,Cc1ccccc1NC(=O)Cn1cnc2c(oc3nc4c(cc32)CCCC4)c1=O,-9.01
13,CC(C)Oc1ccccc1/C=N/NC(=O)C1CCCC1,12.2
14,CN1CCN(C(=O)c2cc(=O)c3cc(Cl)ccc3o2)CC1,-28.1
15,COc1ccc(C(=O)NC2CC2)cc1OC1CCN(C(C)CSC)CC1 (centres unmarked),-75.4
16,CCc1noc(C)c1C(=O)N1CCN(c2cccc(C)c2C)CC1,-32.3
17,CC1CCCN(c2ccc(C(=O)NCCc3ccccc3)cn2)C1 (centres unmarked),-19.5
18,CC(=O)Nc1cccc(OCC(=O)NS(=O)(=O)c2ccc(Cl)cc2)c1,3.08
19,CN(C)C(C)(C)C#CCC(c1ccccc1)c1ccccc1.Cl,-55.9

row,Structure (SMILES),"hERG current change (%, negative = inhibition) at 10uM [%]"
1,Cc1ccc(NC(=O)C2CCN(S(=O)(=O)c3ccc4c(c3)CCCC(=O)N4)CC2)c(Br)c1,-5.9
2,Cc1ccccc1NC(=O)COc1ccc(S(=O)(=O)N2CCCC2)cc1C,16.5
3,O=C(COc1ccc([N+](=O)[O-])cc1)Nc1ccccc1C(=O)NC1CC1,-5.6
4,O=C(CSc1nnc(SCc2cccc3ccccc23)s1)N=Nc1c(O)[nH]c2ccccc12,7.13
5,CCn1c(SCC(=O)c2ccc(O)c(O)c2)nnc1-c1ccccc1OC,-6.41
6,O=C(CSc1nnc(COc2ccccc2Cl)o1)NC(=O)NC1CCCC1,-8.92
7,COc1ccc(C(=O)CN2C(=O)NC(C)(c3ccccc3)C2=O)cc1OC (centres unmarked),-5.63
8,CCOC(=O)CCCNC(=O)CN1C(=O)NC(CCc2ccccc2)C1=O (centres unmarked),0.531
9,CCCOc1ccc(CCC(=O)N/N=C/c2ccncc2)cc1,-11.5
10,CCOC(=O)C1CCN(C(=O)CN(c2ccc(Oc3ccccc3)cc2)S(C)(=O)=O)CC1,-33.6
11,COC(=O)c1ccccc1NC(=O)CN1CCN(C(=O)c2ccco2)CC1,-51.6
12,COC(C(=O)Nc1ccc(Br)cc1F)c1ccccc1 (centres unmarked),16.5
13,CC1CCN(c2nnc(NC(=O)Cn3c(=O)oc4ccccc43)s2)CC1,14.9
14,CCOc1ccc(NC(=O)c2ccc(N3CC4CC(C3)c3cccc(=O)n3C4)c(NC(=O)c3cccnc3)c2)cc1 (centres unmarked),-14.9
15,Cc1cccc(NC(=O)NNC(=O)COc2ccc3ccccc3c2)c1,26.5
16,Cc1cc(NS(=O)(=O)c2ccc(NC(=O)C(CC(C)C)N3C(=O)c4ccccc4C3=O)cc2)nc(C)n1 (centres unmarked),32.8
17,O=c1[nH]c(C2CCN(S(=O)(=O)/C=C/c3ccccc3)CC2)nc2c1nnn2Cc1ccc(F)cc1,-19.3
18,CCOCCn1c(C)c(C(=O)OCC)c2cc(O)c3ccccc3c21,16.9
19,COc1cc(OC)cc(N(C(=O)c2snc(C(N)=O)c2N)C(C(=O)NCC2CCCO2)c2ccc(C)o2)c1 (centres unmarked),-3.46

row,Structure (SMILES),"hERG current change (%, negative = inhibition) at 10uM [%]"
1,OCC1CCCN1C(=S)Nc1ccccc1 (centres unmarked),3.84
2,O=C(Nc1nnc(SCC(=O)N2CCOCC2)s1)C1CC(=O)N(c2ccc(F)cc2)C1 (centres unmarked),15
3,CCN(CC)C(=O)C(Cc1ccccc1)N1C(=O)c2ccccc2C1=O (centres unmarked),1.31
4,COc1cc(-c2cc(-c3ccc(N)cc3)[nH]c(=O)c2C#N)cc(OC)c1OC,9.13
5,COCCSc1ccccc1C(=O)Nc1ccc2c(c1)OCO2,6.82
6,CC(C)[C@H](NC(=O)[C@@H]1CSC2c3ccccc3C(=O)N21)C(=O)NCc1ccncc1 (some centres unmarked),14.4
7,Cc1ccc(NC(=O)CNCc2cccs2)cc1Br.Cl,5.32
8,O=C(O)c1cc2c(ccc3ccccc32)oc1=O,-3.94
9,CCN(CC(=O)NCc1cccs1)C(=O)c1ccc(-c2ccccc2F)o1,-71.6
10,COCCCn1c(N)c(C(=O)OC(C)COC)c2nc3ccccc3nc21 (centres unmarked),0.737
11,Cc1ccc(C(=O)CCC(=O)Nc2ccc(C)cn2)cc1,7.98
12,COc1ccc(C(=O)NCCc2c[nH]c3ccccc23)cc1S(=O)(=O)N1CCOCC1,-9.63
13,Cc1cc(C)n(C(=O)Cn2nc(C)c(Br)c2C)n1,14
14,C=CCSc1ccsc1C(=O)O,-5.27
15,Cc1cc(NC(=O)COc2ccc([N+](=O)[O-])cc2)no1,-4.62
16,CSc1sc(-c2ccnc(=S)[nH]2)c(-c2ccccc2)c1C#N,4.98
17,C=C(C)CSc1nnc(CCNC(=O)OC(C)(C)C)o1,-4.62
18,CCOc1cccc(CN2CCC(n3nccc3NC(=O)CCCc3ccccc3)CC2)c1,-27.5
